# Source: the RNAGym collection of RNA variant scans (doi:10.7554/elife.90254)
# The source gives no read counts; variants with many changes may rest on few reads.
# B1: LINE1-full (parent)
# chain: UACGUAGGUGGUUUUCCCCUGAUAGUGCUAAGGGGGCCUGGAAGUUUGGACUGGGCAGAGCUCAACACAGCGUGGCAAAGUGGCUGUGGCUAGACUGCCUCUCUGGAUUCCUCGUCACUCAGCAGGGCAUCUCUGAGAGAAAUGCC
# Variants of: B1
# Assay: self-cleavage, relative activity (ratio to wild type); higher = more cleavage; in vitro, sequencing; the parent is a self-cleaving ribozyme
row,Variant,self-cleavage
1,UACGUAGGUGGUUCUCCCCUGAUAGUGCCAAGGGGGCCUGGGAGUUUGGACUGGGCAGAGCUCAACACAGCGUGGCAAAGUGGCUGUGGCUAGACUGCCUCUCUGGAUUCCUCGUCACUCAGCAGGGCAUCUCUGAGAGAAAUGCC [U14C U29C A42G],0.27
2,UACGUAGGUGGUUCUCCCCCGAUAGUGCUAAGGGGGCCAGGAAGUUUGGACUGGGCAGAGCUCAACACAGCGUGGCGAAGUGGCUGUGGCUAGACUGCCUCUCUGGAUUCCUCGCCACUCAGCAGGGCAUCUCUGAGAGAAAUGCC [U14C U20C U39A A77G U115C],2.76
3,UACGUAGGUGGUUCUCCCCAGAUAGUGCUAAGGGGGCCUGGAGGUUUGGACUGGGCAGAGCUCAACACAGCGUGGCAAAGUGGCUGUGGCUAGACUGCCUCUCUGGAUUCCUCGUCACUCAGCAGGGCAUCUCUGAGAGAAAUGCC [U14C U20A A43G],1
4,UACGUAGGUGGUUCUCCCCUGAUAGUGCUAAGGGGGCCCGGAUGUUUGGACUGGGCAGAGCUCAACACAGCGUGGCAAAGUGGCUGUGGCUAGACUGCCUCUCUGGAUUCCUCGUCACUCAGCAGGGCAUCUCUGAGAGAAAUGCC [U14C U39C A43U],1.02
5,UACGUAGGUGGUUCUCCCCUGAUAGUGCUAAGGGGGCCAGGAAGUUUGGACUGGGCAGAGCUCAACACAGCGUGGCAAAGUGGCUGUGGCUAGACCGCUUCUCUGGAUUCCUCGCCACUCAGCAGGGUAUCUCUGAGAGAAAUGCC [U14C U39A U96C C99U U115C C128U],0.04
6,UACGUAGGUGGUUCUCCCCUGAUAGUGCCAUGGGGGCCUGGAAGUUUGGACUGGGCAGAGCUCAUCACAGCGUGGCGAAGUGGCUGUGGCUAGACUGCCUCUCUGGAUUCCUCGUCUCUCAGCAGGGCAUCUCCGUGAGAAAUGCC [U14C U29C A31U A65U A77G A117U U134C A136U],0.27
7,UACGUAGGUGGUUCUCCCCUGAUAGCGCUAAGGGGGCCUGGAAGUUUGGACUGGGCAGAGCUCAACACUGCGUGGCAAAGUGGCUGUGGCUAGACUGCCUCCCUGGAUUCCUCGUCACUCAGCAGGGCAUCUCUGAGAGAAAUGCC [U14C U26C A69U U102C],0.37
8,UACGUAGGUGGUUCUCCCCCGAUAGUGCUAAGGGGGCCUGGAAGUUUGGACUGGGCAGUGCUCAACACAGCGUGGCAAUGUGGCUGUGGCUAGACUGCCUCUCUGGAUUCCUCGUCACUCAGCAGGGCAUCUCUGAGAGAAAUGCC [U14C U20C A59U A79U],1.11
9,UACGUAGGUGGUUCCCCCCUGAUAGUGCUAAGGGGGCCCGGAAGUAUGGACUGGGCAGAGCUCUACACAACGUGGCAAAGUGGCUGUGGCUAGACUGCCUCUCUGGAUUCCUCGUCACUCAGCAGGGCAUCUCUGAGAGAAAUGCC [U14C U15C U39C U46A A64U G70A],0.07
10,UACGUAGGUGGUUCUCCCCUGACAGUGCCAAGGGGGCCUGGAAGUUUGGACUGGGCAGAGCUCAACACAGCGUGGCAAAGUGGCUGUGGCUAGACUGCCUCUCUGGACUCCUCGUCACUCAGCAGGGCAUCUCUGAGAGAAAUGCC [U14C U23C U29C U108C],0
11,UACGUAGGUGGUUCUCCCCUGAUAGUGCCAAGGGGGCCUGGAAGUUUGGACUGGGCAGAGCCCAACACAGCGUGGCAAAGUGGCUGUGGCUAGACUGCCUCUCUGGAUUCCUCGUCACCCAGCAGGGCAUCUCUGAGAGAAGUGCC [U14C U29C U62C U119C A142G],0
12,UACGUAGGUGGUUCCCCCCUGAUAGCGCUAAGGGGGCCUGGAAGUUUGGACUGGGCAGAGCUCAACACAGCGUGGAAAAGUGGCUGUGGCUAGACUGCCUCUCUGGAUUCCUCGUCACUCAGCAGGGCAUCUCUGAGGGAAAUGCC [U14C U15C U26C C76A A138G],1.6
13,UACGUAGGUGGUUCUCCCCUGAUAGUGCCAAGGGGGCCUGGAAGUUUGGACUGGGCAGAGCUCAACACAGCGUGGCAGAGUGGCUGCGGCUAGACUGCCUCUCUGGAUUCCUCGUCACUAAGCAGGGCAUCUCUGAGAGAAAUGCC [U14C U29C A78G U87C C120A],0
14,UACGUAGGUGGUUCUCCCCUGAUAGCGCUAAGGGGGCCUGGAGGUUUGGACUGGGCAGAGCUCAACACAGCGUGGCAAAGUGGCUGUGGCUAGACUGCCUCUCUGGAUUCCUCGUCACUCAGCAGGGCAUCUCUGAGAGAAAUGCC [U14C U26C A43G],0.97
15,UACGUAGGUGGUUCUCCCCUGAUAGCGCUAAGGGGGCCUGGAAGUUUGGACUGGGCAGAGCACAACACAGCGCGGCAAAGUGGCUGUGGCUAGACUGCCUCUCUGGAUUCCUCGUCACUCAGCAGGGCAUCUCUGAGAGAAAUGCC [U14C U26C U62A U73C],0.09
16,UACGUAGGUGGUUCUCCCCUGAUAGUGCAAAGGGGACCUGGAAGUUUGGACUGGGCAGAGCUCGACACAGCGUGGCAAAGUGGCUGUGGCUAGACUGCCUCUCUGGAUACCUCGUCACUCAGCAGGGCAUCUCUGAGAGAAAUGCC [U14C U29A G36A A64G U109A],0.21
17,UACGUAGGUGGUUCUCCCCCGAUAGUGCUAAGGGGGCCUGGAAGUUUGGACUGGGCAGAGCUCAACACAGCGUGGCAGAGUGGCUGUGGCUGGACUGCCUCUCUGGAUUCCUCGUCACUCAGCAGGGCAUCUCUGAGAGAAAUGCC [U14C U20C A78G A92G],0.2
18,UACGUAGGUGGUUCUCCCCUGAUAGCGCUAAGGGGGCCUGGAAGUUUGGACUGGGCAGAGCUCAACACAGCGUGGCAAAGUGGCUGUGGCUAGACUGCCUCUCUGGAUUCCUCGUCACUCAGCAGGGCAUCUCUGAGGGAAAAGCC [U14C U26C A138G U143A],1.53
19,UACGUAGGUGGUUCUCCCCUGACAGCGCUAAGGGGGCCUGGAAGUUUGGACUGGGCAGAGCUCAUCACAGCGUGGCAAAGUGGCUGUGGCUAGACUGCCUCUCUGGAUUCCUCGUCACUCAGCAGGGCAUCUCUGAGAGAGAUGCC [U14C U23C U26C A65U A141G],0.59
20,UACGUAGGUGGUUCCCCCCUGAUAGUGCUAAGGGGGCCCGGAAGUUUGGACUGGGCAGAGCUCAACACAGCGUGGCAAAGUGGCUGCGGCUAGACUGCCUCUCUGGAUUCCUCGUCACUCAGCAGGGCAUCUCUGAGAGAAAUGCC [U14C U15C U39C U87C],0.42

row,Variant,self-cleavage
1,UACGUAGGUGGUUCCCCCCUGAUAGUGCUAAGGGGGCCUGGAAGUUUGGACUGGGCAGAGCUCAACACAGCGUGGCAAAGUGGCUGUGGCUAGACUGCCUCUCUGGAUUCCUCGUCACUCAGCAGGGCAACUCUGAGAGAAAUGCC [U14C U15C U130A],1.39
2,UACGUAGGUGGUUCUCCCCAGAUAGUGCUGAGGGGGCCUGGAAGUUUGGACUGGGCAGAGCUCAACUCAGCGUGGCAAUGUGGCUGUGGCUAGACUGCCUCUCUGGAUUCCUCGUCACUCAGCAGGGCAUCUCUGAGAGAAAUGCC [U14C U20A A30G A67U A79U],0.77
3,UACGUAGGUGGUUCUCCCCUGACAGUGCUAAGGGGGCCCGGAAGUUUGGACUGGGCGGAGCUCAACACAGCGUGGCAAAGUGGCUGUGGCUAGACUGCCUCUCUGGAUUCCUCGUCACUCAGCAGGGCAUCUCUGAGAGAAAUGCC [U14C U23C U39C A57G],0
4,UACGUAGGUGGUUCUCCCCUGAUAGUGCUAAGGGGGCCAGGAAGUUUGGACUGGGCAGAGCUCAACACAGCGCGGCAAAGUGGCUGUGGCUAGACUGCCUCUCUGGAUUCCUCGUCACUCAGCAGGGCAUCUCUGAGAGAAAUGCC [U14C U39A U73C],2.22
5,UACGUAGGUGGUUCUCCCCAGAUAGUGCUAAGGGGGCCUGGAAGUUUGGACUGGGCAGAGCCCAACACAGCGUGGCAAAGUGGCUGUGGCUAGUCUGCCUCUCUGGAUACCUCGUCACUCAGCAGGGCAUCUCUGAGAGAAAUACC [U14C U20A U62C A94U U109A G144A],0.15
6,UACGUAGGUGGUUCUCCCCCGAUAGUGCUAAGGGGGCCUGGAAGUUUGGACUGGGCAGAGCUCAACACAGCGUGGCAAAGUGGCUGUGGAUAGACUGCCUCUCUGGAUUCCUCGUCACUCAGCAGGGCAUCUCUGAGAGAAAUGCC [U14C U20C C90A],0.13
7,UACGUAGGUGGUUCUCCCCUGAUAGUGCUAAGGGGGCCCGGAAGUUUGGACUGGGCAGAGCUCAACACAGCGUGGCAGAGUGGCUGUGGCUAGACUGCCUCUCUGGAUUCCUCGUCACUCAGCAGGGCAUCUCUGAGAGAAGUGCC [U14C U39C A78G A142G],1.17
8,UACGUAGGUGGUUCUCCCCUGAUAGUGCUAAGGGGGCCAGGAAGUUUGGACUGGGCAGAGCUCAACACGGCGUGGCAAAGUGGCUGUGGCUAGACUGCCUCUCUGGAUUCCUCGACACUCAGCAGGGCAUCUCUGAGAGAAAUGCC [U14C U39A A69G U115A],0.54
9,UACGUAGGUGGUUCUCCCCUGACAGUGCUAAGGGGGCCUGGAAGUUUGGACUGGGCAGAGCUCAACACAGCGUGGCAAUGUGGCUGUGGCUAGACUGCCUCUCUGGAUUCCUCGUCACUCAGCAGGGCAUCUCUGAGAGAAAUGCC [U14C U23C A79U],2.13
10,UACGUAGGUGGUUCUCCCCUGACAGUGCUAAGGGGGCCUGGAAGUCUGGACUGGGCAGAGCUCAACACAGCGUGGCAAAGUGGCUGUGGCUAGACUGCCUCUCUGGAUUCCCCGUCACCCAGCAGGGCAUCUCUGAGAGAAAUGCC [U14C U23C U46C U112C U119C],1.15
11,UACGUAGGUGGUUCUCCCCUGAUAGUGCCAAGGGGGCCUGGAAGUUUGGACUGGGCAGAGCUCAACACAGCGAGGCAAAGUGGCUGUGGCUAGACUGCCUCUCUGGAUUCCUCGUCACUCAGCAGGGCAUCUCUGAGAGAAAUGCC [U14C U29C U73A],1.04
12,UACGUAGGUGGUUCCCCCCUGAUAGUGCUAAGGGGACCUGGAAGUUUGGACUGGGCGGAGCUCAACACAGCGUGGCAAAGUGGCUGUGGCUAGACUGCCUCUCUGGAUCCCUCGUCACUCAGCAGGGCAUCUCUGAGAGGAGUGCC [U14C U15C G36A A57G U109C A140G A142G],0.42
13,UACGUAGGUGGUUCUCCCCCGUUAGUGCUAAGGGGGCCUGGAAGUUUGGACUGGGUAGAGCUCAACACAGCGUGGCAAAGUGGCUGCGGCUAGACUGCCUCUCUGGAUUCCUCGUCACUCAGCAGGGCAUCUCUGAGAGAAAUGCC [U14C U20C A22U C56U U87C],0.27
14,UACGUAGGUGGUUCUCCCCUGACAGUGCUAAGGGGGCCUGGAAGUUUGGACUGGGCAGAGCCCAACACAGCGUGGCAGAGUGGCUGUGGCUAGACUGCCUCUCUGGAUUCCUCGUCACUCAGCAGGGCAUCUCUGAGAGAAAUGCC [U14C U23C U62C A78G],0.13
15,UACGUAGGUGGUUCUCCCCCGAUAGUGCUAAGGGGGCCUGGAAGUUUGGACUGGGCAGAGCUCAACACAGCGUGGCAAAGUGGCUGUGGCUAGACUGCCUCUCUGGAUUCCUCGUCACUCAGCAGGGCAUCUCUGGGAGAAACGCC [U14C U20C A136G U143C],0.77
16,UACGUAGGUGGUUCUCCCCCGAUAGUGCUAAGGGGGCCUGGAAGUUUGGACUGGGCAGAGCUCAACACAGCGUGGCAAAGUGGCUGUGGCUAGACUGCCUCUCGGGAUUCCUCGUCACUCAGCAGGGCAUCUCUGGGAGAAAUGCC [U14C U20C U104G A136G],2.04
17,UACGUAGGUGGUUCUCCCCCGAUAGUGCUAAGGGGGCCUGGAAGUUUGGACUGGGCAGAGCUCAACACAGCGUGGCAAAGUGGCUGUGGCUAGACUGCCUCCCUGGGUUCCUCGUCACUCAGCAGGGCAUCUCUGAGAGAAAUGCC [U14C U20C U102C A107G],1.31
18,UACGUAGGUGGUUCUCCCCUGAUAGUGCCAAGGGGGCCUGGAUGUUUGGACUGGGCAGAGCUCAACACAGCGUGGCAUAGCGGCUGUGGCUUGACUGCCUCUCUGGAUUCCUCGUCACUCAGCAGGGCAUCUCUGAGAGAAAUGCC [U14C U29C A43U A78U U81C A92U],1.17
19,UACGUAGGUGGUUCUCCCCUGAUAGUGCUAAGGGGGCCCGGAAGUUUGGACUGGGCAGAGCUCAACACAGCGUGGCAAAGUGGCUGUGGCUAGACUGCCUCUCUGGAUUCCUCGUCACUCAGCUGGGCAUCUCUGAGAGAAAUGCC [U14C U39C A124U],0
